Test results: PubChem BioAssay AID1508623 (National Center for Advancing Translational Sciences (NCATS), 2021)
Screen size: about 48,000 compounds; about 450 (0.94%) were called active. About 19% were inconclusive and are not listed. Calls come from the whole dose curve; as a rule, active = well fitted inhibition curve with a large enough effect; inconclusive = small, poorly fitted or top-dose-only effect; inactive = no such curve, though single readings can be large or run the other way. Some of the results follow.

assay: Primary qHTS for Identification of Small Molecule Inhibitors of Huntingtin Promoter Activity; details: HEK293 HTT promoter firefly luciferase reporter (activity 0% = vehicle and -100% = no light), 24 h; series mostly up to 57.5 µM; activity change, negative = inhibition: at the top concentration; note: nearly all actives have a fitted effect of over 50% in size
Outline: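 HEK293 cells carrying firefly luciferase reporters were seeded at 2,500 per well in Opti-MEM and cultured for 24 h. They were then treated with compounds at up to 57.5 uM final for 24 h at 37 degrees C before Dual-Glo luminescence readout.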

Activity change, negative = inhibition, inactive:
Cc1cc(NC(=O)CSc2nc3c([nH]c4ccccc43)c(=O)n2-c2ccc(Cl)cc2)no1 -11.6%
Cc1cc(=O)n(Cc2ccccc2Cl)c2c1c(C)nn2-c1ccccc1 -18.8%
O=C(NCC1CCN(Cc2ccccc2Cl)CC1)c1cc2ccc3cccnc3c2[nH]1 -7.82%
O=C(CC1Oc2ccccc2NC1=O)NCc1ccc(F)cc1 (stereo unspecified) -5.77%
COc1ccc(CC(=O)Nc2nnc3n2CCS3)cc1 0.0678%
O=c1oc2ccc(F)cc2cc1-c1nc(-c2cccs2)no1 50%
Cc1ccc(CSc2nc3ccsc3c(=O)n2CCC(C)C)cc1 -3.48%
CCN1CCN(C(=O)c2ccc3c(c2)N(Cc2ccc(F)cc2)C(=O)c2ccccc2S3(=O)=O)CC1 -14.6%
Cc1cccc(OCc2nnc(-c3ccccc3)o2)c1 50.6%
CCn1c2c(c(=O)n3ncc(C(=O)Nc4ccc(F)cc4Cl)c13)CN(Cc1ccc(OC)cc1)CC2 -27.7%
Cc1ccc(-c2nc(-c3cc4cccc(OCc5cccc(F)c5)c4oc3=O)no2)cc1 -11.2%
CCOc1ccc(-n2c(Cc3ccccc3)nnc2SCc2nc(-c3cccs3)no2)cc1 -16.4%
COc1cccc(NC(=O)c2sc3nc(C)c(C(=O)Nc4ccc(C)cc4C)c(-c4cccs4)c3c2N)c1 -12.6%
Cc1cc(C)cc(NC(=O)C2CCN(S(=O)(=O)c3c(C)noc3/C=C/c3ccco3)CC2)c1 -9.18%
Cc1ccn2c(Nc3c(C)cccc3C)c(-c3ccc(Cl)s3)nc2c1 -18%
Cc1ccc2c(c1)c1c(c(=O)n(-c3ccccc3C)c(=O)n1Cc1cccc(F)c1)n2C -19.7%
Cc1ccc(Cl)cc1NC(=O)C(NS(=O)(=O)c1ccc2c(c1)CCC(=O)N2)c1ccccc1 (stereo unspecified) -15.5%
CCc1ccc(NCc2cc3cc(OC)c(OC)cc3n(CC(=O)Nc3ccc(F)cc3)c2=O)cc1 -20%
Cc1cccc(NC(=O)CC2C(=O)OCCN2Cc2ccccc2)c1 (stereo unspecified) -36.8%
CC1=C(c2ccc(F)cc2)S(=O)(=O)NC1=NCc1ccccc1Cl -28.6%
CC(C)(C)C(=O)Nc1ccc2nc(SCc3ccccc3)sc2c1 -15.7%
COc1ccc2cc(CNc3ccccc3)c(=O)n(CC(=O)Nc3ccc(C(C)=O)cc3)c2c1 -37.4%
Cc1ccccc1C(=O)NC(=O)Nc1ccc(-n2nc(C(F)(F)F)cc2C(F)(F)F)cc1 -6.36%
COc1cccc(CNC(=O)CCn2c(=O)c3cccn3c3cccnc32)c1 5.38%
CCC(=O)N1CCc2cc(S(=O)(=O)NC(Cc3ccccc3)C(=O)NCc3cccc(OC)c3)ccc21 (stereo unspecified) -18.8%
COc1ccc(-c2cn3nc(N4CCCC(C(=O)NCCCOC(C)C)C4)sc3n2)cc1 (stereo unspecified) -19.5%
CCCN(CCC)c1cc(C)nc2nc(-c3ccc(Cl)cc3)nn12 -3.65%
Cc1ccc(C(=O)CSc2nc(-c3ccccc3)nc3c2CCCC3)cc1C -8.62%
CC1=C(C(=O)Nc2ccc(C)cc2C)C(c2cccs2)n2nc(SCc3ccc(Cl)cc3)nc2N1 (stereo unspecified) 11.1%
COc1ccc(-c2csc3ncnc(Nc4cccc(F)c4)c23)cc1 -16.2%
CC(=O)c1ccc(NC(=O)CC2Sc3ccccc3NC2=O)cc1 (stereo unspecified) -7.57%
Cc1cc(Oc2nc3ccccn3c(=O)c2/C=C(\C#N)c2nc3ccccc3s2)ccc1Cl -0.533%
Cc1ccc(CSc2nc3cccnc3n2Cc2ccc(C(=O)NCc3cccs3)cc2)cc1 -10.4%
Cc1nc2nc(NC(=O)C(C)C)[nH]n2c(=O)c1Cc1ccccc1 0.51%
Cc1ccc(NC(=O)C2CCN(C(=O)c3cnn(-c4ccccc4)c3-n3cccc3)CC2)cc1Cl -4.23%
COc1cc(Cl)c(C)cc1NC(=O)CCn1cnc2onc(-c3ccc(F)cc3)c2c1=O -2.23%
CC(CNC(=O)Cn1c(-c2cccs2)cc2cc(Cl)ccc21)c1ccccc1 (stereo unspecified) -15.4%
COCC(C)NS(=O)(=O)c1ccc(N2CCCCS2(=O)=O)cc1 (stereo unspecified) -35.7%
CCOC(=O)c1ccc(NC(=O)c2sc3nc4n(c(=O)c3c2C)CCC4)cc1 -16.6%
CCN1C(C(=O)c2ccccc2)=C(NC(=O)c2ccc(Cl)cc2)c2ccccc2S1(=O)=O -28.5%
Cc1ccc2c(CC(=O)Nc3c(C(=O)c4ccc(F)cc4)oc4ccccc34)coc2c1C 6.69%
CC(C)c1ccc(NC(=O)C(Cc2ccccc2)n2cccc2)cc1 (stereo unspecified) -19.8%
Cc1ccc(C)c(S(=O)(=O)c2cn(Cc3ccccc3)c3cc(N4CCCC4)c(F)cc3c2=O)c1 -29.4%
CCOc1ccc(NC(=O)Cn2c(=O)n(CC(=O)NCCc3ccccc3)c(=O)c3sccc32)cc1 -9.9%
Cc1ccc(-n2ccn(CC(=O)c3ccc(F)cc3)c(=O)c2=O)cc1C -13.1%
Cc1ccc(-n2[nH]c(C)c(N=Nc3cccc(-c4cccc(C(=O)O)c4)c3O)c2=O)cc1C 1.15%
CCOC(=O)c1ccc(N2C(=O)c3[nH]nc(-c4ccccc4)c3C2c2ccc(C(C)C)cc2)cc1 (stereo unspecified) -20.2%
COc1ccc2c(CNCCc3ccco3)c(C(=O)O)n(Cc3ccc(F)cc3)c2c1 -21.4%
CC(=O)Nc1nonc1-c1nnc(SCC(=O)Nc2c(C)cccc2C)n1-c1ccccc1 -13.9%
CCn1cc(C(=O)NCc2ccc(Cl)cc2)c(=O)c2cc(S(=O)(=O)N3CCc4ccccc4C3)ccc21 3.02%
COc1ccc(C)cc1NC1(c2ccccc2)C(=O)c2ccccc2C1=O -9.12%
COc1ccc(OC)c(N(C)S(=O)(=O)c2ccc3c(c2)NC(=O)CC(=O)N3)c1 -4.11%
CN(C)c1ccc(NC(=O)CC(NCc2cccnc2)C(=O)O)cc1 (stereo unspecified) -7.32%
Cc1ccccc1NC(=O)c1sc2nc3n(c(=O)c2c1C)N=C(c1ccccc1)CS3 -10.3%
Cc1ccc(NC(=O)CCCn2c(=O)c3cccn3c3cccnc32)c(C)c1 -4.01%
COc1cccc(CNc2sc3c(c2C(=O)Nc2ccc(OC)cc2OC)CCC3)c1 -9.45%
CCC(Sc1nc2nccnc2c(=O)n1Cc1ccc(Cl)cc1)C(=O)NC1CCCCC1 (stereo unspecified) -15.7%
COc1ccc(-n2ccn3c(CC(C)(C)CC(=O)O)nnc3c2=O)cc1 -12.3%
O=c1c(-c2cc(-c3ccccc3)nc3c2COc2ccc(Cl)cc2-3)coc2ccccc12 -6.28%
CCOc1ccc(NC(=O)c2cnn3c2NC(C)=C(C(=O)Nc2ccc(Cl)cc2)C3c2ccc(OC)c(OC)c2)cc1 (stereo unspecified) -10.1%
O=C(O)C(=O)Nc1cccc(C2=NN=N[N]2)c1 -1.18%
CC(C)CNC(=O)C(=O)Nc1c2c(nn1-c1ccc(Cl)cc1)CSC2 -23%
CC(=O)c1ccc(NC(=O)CSc2nccn2C2CCCC2)cc1 -8.77%
Cc1cccc(N2CCN(c3ccc4cc(S(=O)(=O)N5CCC(C)CC5)ccc4n3)CC2C)c1 (stereo unspecified) -3.38%
CCOc1ccc(NC(=O)CSc2nc3ccccc3nc2N2CCOCC2)cc1 -26.7%
COc1ccc(CNC(=O)c2cc3cccc4c3n2CC(C)S4)cc1 (stereo unspecified) -21.1%
COc1ccc(S(=O)(=O)NC(C)(C)CO)cc1-c1nnc2c3ccccc3c(C)nn12 -5.01%
O=c1c(N2CCN(c3ccc(F)cc3)CC2)csc2ccc(F)cc12 1.44%
CCCn1c(=O)c2sccc2n2c(CCCC(=O)N3CCN(c4ccc(OC)cc4)CC3)nnc12 -25.3%
Cc1nn(-c2cccc(Cl)c2)c2nc(-c3cccnc3)cc(C(F)(F)F)c12 -9.11%
CCOCCCNC(=O)CN1C(=O)COc2ccc(S(=O)(=O)N3CCOCC3)cc21 -8.68%
COc1ccc(-c2cc(C(F)(F)F)nc(SCCC(=O)Nc3ccc(F)cc3F)n2)cc1 -13.5%
CC(=O)c1ccc(NC(=O)CSc2nnc3c(n2)[nH]c2ccccc23)cc1 -21.4%
O=C(Nc1ccc(F)cc1F)c1ccc(-n2cnc3cccnc32)cc1 -2.55%
CCOC(=O)c1ccc(O)cc1 4.81%
O=C(CCC1N=C2c3ccccc3N=C(SCc3ccc(F)cc3)N2C1=O)N1CCN(c2ccccc2)CC1 (stereo unspecified) -3.87%
COc1ccc(N2CCN(C(=O)CCCCn3c(=O)[nH]c4ccsc4c3=O)CC2)cc1 -17.9%
Clc1ccc(-c2nc3ncccn3c2Nc2ccc3c(c2)OCCO3)cc1 5.76%
COC(=O)c1c(SCC(=O)Nc2ccccc2C(F)(F)F)[nH]c2ccc(Cl)cc2c1=O -9.74%
CCOC(=O)C1CCN(C(c2ccc(C)cc2)c2sc3nc(-c4ccco4)nn3c2O)CC1 (stereo unspecified) 0%
CCOc1ccc(/C=C(\C#N)C(=O)Nc2sc3c(c2C(=O)OC)CCC3)cc1OC -2.54%
Cc1cccc(Nc2cc(C)nc3nc(-c4ccccc4)nn23)c1 -14%
CC1=C(C(=O)Nc2cccc(F)c2)C2(CCCCC2)OC1=O -21.6%
Cc1ccc(-c2nc(CCNC(=O)C(=O)Nc3ccc(C)c(Cl)c3)cs2)cc1 3.87%
COc1ccccc1C(=O)Nc1ccccc1C(=O)OCc1cc(=O)n2ccsc2n1 -8.53%
CCOC(=O)c1sc(NC(=O)c2nc3nc(C)cc(C(F)F)n3n2)c(C(=O)OC(C)C)c1C -1.11%
CC(C)(C)NC(=O)[C@@H]1CN(Cc2cccnc2)CCN1C[C@@H](O)C[C@@H](Cc1ccccc1)C(=O)N[C@H]1c2ccccc2C[C@H]1O 4.04%
CCCN(CCC)C(=O)Cn1c(SCc2cccc(F)c2)nc2cccnc21 -11.1%
Cc1nc(-c2ccc(F)cc2)sc1CCNC(=O)c1ccccc1C(F)(F)F -35.2%
Cc1ccc(CNC(=O)c2cc3c(=O)n4cccc(C)c4nc3s2)cc1 -8.89%
Cc1ccc(CNC(=O)CN2C(=O)C3CCCCN3c3ccc(C(=O)N(C)C)cc32)cc1 (stereo unspecified) -5.15%
CC1=C(C(=O)Nc2ccccc2C)C(c2sccc2C)n2ncnc2N1 (stereo unspecified) -6.87%
Cc1ccc(S(N)(=O)=O)cc1NC(=O)c1c(-c2c(Cl)cccc2Cl)noc1C -18.4%
Cc1cccc(CSc2ncc(Cl)c(C(=O)Nc3nnc(C)s3)n2)c1 -15%
CCN(CC)CCNC(=O)CN1C(=O)CSc2ccc(S(=O)(=O)N3CCOCC3)cc21 -1.61%
Cc1ccccc1CSc1nc2c([nH]c3ccccc32)c(=O)n1-c1ccccc1 -18.7%
